Data published in article PMC6919601, “Identification of Plasmodium dipeptidyl aminopeptidase allosteric inhibitors by high throughput screening” (PLoS ONE, 2019).
In all, about 110,000 compounds went through this assay and about 230 (0.21%) showed an effect of 50% or more. Some of the results follow.

Biological target: DPAP1 (Plasmodium falciparum, UniProt Q8IIJ9)
Test: primary screen, percent inhibition; read by cleavage of a fluorogenic dipeptide substrate; higher = more effect of the substance
Parameters: species or system P. falciparum D10 trophozoite lysates; single well
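Note: 30 min substrate incubation versus DMSO and 10 µM JCP410 controls.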

DPAP1, sequence (Q8IIJ9 whole entry, looked up): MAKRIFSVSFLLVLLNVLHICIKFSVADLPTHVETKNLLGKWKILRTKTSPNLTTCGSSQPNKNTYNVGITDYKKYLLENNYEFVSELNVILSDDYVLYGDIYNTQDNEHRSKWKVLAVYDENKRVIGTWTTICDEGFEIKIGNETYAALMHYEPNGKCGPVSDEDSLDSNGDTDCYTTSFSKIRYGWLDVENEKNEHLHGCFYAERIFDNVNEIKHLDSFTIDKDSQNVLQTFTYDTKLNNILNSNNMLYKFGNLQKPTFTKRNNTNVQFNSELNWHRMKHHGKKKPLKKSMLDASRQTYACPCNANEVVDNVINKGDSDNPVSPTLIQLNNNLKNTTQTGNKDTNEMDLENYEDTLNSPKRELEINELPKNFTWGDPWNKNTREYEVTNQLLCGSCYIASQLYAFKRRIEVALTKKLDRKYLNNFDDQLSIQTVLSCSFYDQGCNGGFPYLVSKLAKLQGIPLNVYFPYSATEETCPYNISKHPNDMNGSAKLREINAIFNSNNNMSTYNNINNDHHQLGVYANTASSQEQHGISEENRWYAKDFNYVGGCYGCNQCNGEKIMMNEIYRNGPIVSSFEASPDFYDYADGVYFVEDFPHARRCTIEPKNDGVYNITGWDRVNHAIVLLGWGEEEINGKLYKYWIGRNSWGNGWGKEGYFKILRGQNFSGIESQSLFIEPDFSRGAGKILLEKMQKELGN

SMILES | % Inhibition @ 10 uM
Cc1noc2c1C(c1cc(Br)ccc1F)C(C#N)=C(N)N2 (centres unmarked) | -0.988%
O=C(O)CNC(=S)N(CCCN1CCOCC1)Cc1cccs1 | 3.04%
COc1ccc2c(CNC3CCCC(C)C3C)c(C(=O)O)n(Cc3ccccc3F)c2c1 (centres unmarked) | 1.17%
COc1cc(OC)cc(C(=O)Nc2nc3ccccc3s2)c1 | -8.02%
CCN(CCO)Cc1csc2ccccc12 | -2.65%
COc1ccc2c(=O)/c(=C\c3ccc(Br)cc3)oc3cccc1c32 | 2.17%
O=C(C1CCN(c2nnc(N3CCCC3=O)s2)CC1)N1CCC2(CC1)OCCO2 | -2.85%
CCC(C)c1ccc(NC(=O)C2C3C=CC(C3)C2C(=O)O)cc1 (centres unmarked) | -1.88%
COc1cccc(OC)c1C(=O)Nc1cccc(Cl)c1 | 1.55%
CCOC(=O)c1c(C)n(C)c2ccc(OCC(O)CNCCO)cc12 (centres unmarked) | 2.1%
O=C(CSc1ccc2ccccc2n1)NCc1ccc2c(c1)OCO2 | -7.45%
Fc1ccc(CNc2nc3ccc(Cl)cc3s2)cc1 | -1.24%
CCOc1ccc(-c2nonc2NC(=O)C(c2ccccc2)c2ccccc2)cc1 | 5.39%
CNC(=O)/C(C#N)=C/c1c(Oc2ccccc2OC)nc2ccccn2c1=O | 3.63%
Cc1c(CNCc2ccc(F)cc2)c(C(=O)O)c(C)n1Cc1ccc(Cl)cc1 | -7.36%
CN1CCN(c2ncnc3c2c(-c2ccccc2)cn3-c2ccc(Cl)cc2)CC1 | 6.14%
CCOCCOC(=O)C1=C(C)NC(=O)CC1c1ccccc1OCC (centres unmarked) | 0.484%
Cc1cc(C(F)(F)F)c(C#N)c(SCC(=O)Nc2nccs2)n1 | -2.77%
CC(=O)c1cccc(NC(=O)c2ccc(N(C)S(=O)(=O)c3ccc(C)cc3)cc2)c1 | 5.24%
N=C1/C(=C/c2ccc(SCc3ccco3)o2)C(=O)N=C2SC=C(c3ccc(F)cc3)N12 | 28.7%
Cc1nc2ncnn2c(O)c1NC(=O)c1cccc(OCC(C)C)c1 | 1.49%
O=C1CC(N2CCOCC2)C(=O)N1c1ccc(F)cc1 (centres unmarked) | -1.44%
COc1ccccc1/C=C/c1nc(-c2ccc(OCC(N)=O)cc2)no1 | -8.55%
Cc1ccc(CS(=O)Cc2ccc(C(=O)NC(C)c3ccccc3)o2)cc1 (centres unmarked) | -0.0309%
O=C(CCc1ccccc1)N1CCN(c2ccc(F)cc2)CC1 | 7.36%

SMILES | % Inhibition @ 10 uM
O=C(CSCC(=O)N1c2ccccc2Sc2ccccc21)Nc1ccccc1 | -6.02%
COc1cccc(OC)c1C(=O)Nc1ccccc1C | 4.03%
Cn1ncc(C(=O)N2CCN(C(=O)c3ccco3)CC2)c1C1CCN(C(=O)OC(C)(C)C)CC1 | 0.0065%
CC1=C(C(=O)NCCCc2ccccc2)C2(CCCCC2)OC1=O | -0.138%
Cc1ccc(C(=O)C2=C(O)C(=O)N(c3ncccn3)C2c2ccc(Br)cc2)o1 (centres unmarked) | -8.28%
CC(C)(C)NC(=O)/C=C/c1cccc([N+](=O)[O-])c1 | -5.84%
CCOc1ccccc1OCc1nn2c(Cn3cnc4ccccc43)nnc2s1 | 20.1%
FC(F)(F)c1cccc(CN2CCN(c3ncccn3)CC2)c1 | 0.708%
COc1cc(/C=C2\SC(=O)N(CC(=O)N3CCOCC3)C2=O)ccc1OCc1ccccc1C#N | -0.312%
COc1ccc(C(=O)N2c3c(C)cccc3C(Nc3ccccc3C)CC2C)cc1 (centres unmarked) | -2.54%
N#CCNC(=O)C1CCCCN1c1ccc(Br)cc1 (centres unmarked) | -4.72%
CC(C)CC(C(=O)NCC#N)c1cccc(-c2cccc(S(=O)(=O)N3CCOCC3)c2)c1 (centres unmarked) | -5.04%
CN(c1ccc(C(=O)Nc2ccc(S(=O)(=O)N3CCCCC3)cc2)cc1)S(C)(=O)=O | -4.39%
CC(=O)c1ccc(C(=O)Nc2ccc(OCC(N)=O)cc2)cc1 | -6.08%
CCn1c2ccccc2c2cc(CN3CC4(C)CC3CC(C)(C)C4)ccc21 (centres unmarked) | 1.08%
Cc1ccc(-c2noc(CCC(=O)NCC3CCN(Cc4cccc(C)c4)CC3)n2)cc1 | 1.3%
N#CCNC(=O)[C@H](CC1CCCCC1)NC(=O)c1sccc1Cl | -5.21%
O=C(Cn1c(S(=O)(=O)Cc2ccccc2)nc2ccccc21)NC12CC3CC(CC(C3)C1)C2 | 1.72%
Cc1oc2cc3oc(=O)c(CCC(=O)NCc4ccccc4)c(C)c3cc2c1C | 0.895%
CCN(CC)S(=O)(=O)c1ccc(NC(=O)COc2ccccc2Cl)cc1 | -0.251%
C=CCN1C(=O)S/C(=C/c2ccccc2Cl)C1=O | -1.95%
O=C(CSc1ccccn1)Nc1c(C(=O)C2CC2)oc2ccccc12 | 0.778%
CC(=O)Nc1ccc(Nc2nc(-c3c(C)nc4ncccn34)cs2)cc1 | -4.32%
COc1ccc(OC)c(/C=C2/SC(Nc3ccc(C)cc3)=NC2=O)c1 | 6.51%
COc1cc(-n2nc(SC)c(C#N)c2N)nc(-c2ccccc2)n1 | 1.82%
